The whole screen tested about 200,000 compounds, of which about 10 (0.005%) were called active. This list was built around the results that the source calls inconclusive (neither active nor inactive); the mix of calls is not that of the screen. Calls follow the shape of the dose curve; as a rule, active = well fitted inhibition curve with a large enough effect; inconclusive = small, poorly fitted or top-dose-only effect, or effect the other way, or another doubt; inactive = no such curve, though single readings can be large or run the other way. Potencies of inconclusive entries are left out as doubtful fits.
molecular target: Lysosomal alpha-glucosidase (Homo sapiens) (UniProt P10253); test: qHTS Assay for Inhibitors of Human alpha-Glucosidase as a Potential Chaperone Treatment of Pompe Disease; conditions: purified human GAA, 4-MU-alpha-glucoside fluorescence; activity change, negative = inhibition: at 76.9 µM (top of the series) unless noted;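 as to activity change, negative = inhibition: plate controls were uninhibited enzyme wells for no effect and no-enzyme background for full effect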
Summary of the method: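 Compounds are titrated up to 77 uM against 4 nM human enzyme. Substrate 4-methylumbelliferyl-alpha-D-pyranoside (400 uM) reacts 20 min at room temperature in pH 5.0 buffer; liberated 4-methylumbelliferone is read at 440 nm.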
Potency is read from the fitted curve at half-maximal effect; tags tell the direction and shape of the fitted curve.

Structure (SMILES)	Potency	activity change, negative = inhibition
O=C(O)c1ccccc1-n1c(-c2ccccc2)cc2c1CCCC2=O	inconclusive [inhibitor, full curve, poor fit]	–
Cc1cc2nnc(SCC(=O)NCC3CCCO3)n2c2ccccc12 (configuration not stated)	inconclusive [activator, full curve, poor fit]	–
Cc1ccc(C(=O)N/C(=C\c2cn(-c3ccccc3)nc2-c2ccccc2)C(=O)N2CCOCC2)cc1	inconclusive [inhibitor, single point]	–
COC(=O)c1ccccc1-c1ccc(C(c2c(C)[nH][nH]c2=O)c2c(C)[nH][nH]c2=O)o1	–	inactive: -14.2%
COCCCNC(=O)c1c(N)n(-c2cccc(S(N)(=O)=O)c2)c2nc3ccccc3nc12	inconclusive [activator, partial curve]	–
CN(C)CCN(Cc1cc2cc3c(cc2[nH]c1=O)OCCO3)C(=S)NCC1CCCO1 (configuration not stated)	inconclusive [activator, partial curve, poor fit]	–
COc1ccc(NC(=S)N(CCc2c(C)[nH]c3ccc(C)cc23)Cc2cccnc2)cc1	–	inactive: -10.3%
Cc1c(NS(=O)(=O)c2ccccc2)cc(Cl)c(O)c1C	–	inactive: -7.35%
CN(Cc1nc(Cc2cccc(F)c2)no1)CC1CCOCC1	–	inconclusive: 16.8% [activator]
Cc1ccc(S(=O)(=O)N2CCN(C(C)C)CC2)cc1	inconclusive [activator, full curve, poor fit]	–
CC(=O)Oc1ccc(NC(=O)Cc2ccccc2)cc1	inconclusive [inhibitor, single point]	–
Cc1sc(C(C2C(=O)CC(C)(C)CC2=O)C2C(=O)CC(C)(C)CC2=O)cc1[N+](=O)[O-]	inconclusive [inhibitor, partial curve]	–
CCOc1ccc(NC(=S)N(CCc2ccncc2)C(C)C)cc1	inconclusive [inhibitor, single point]	–
O=S(=O)(Nc1cccc2ccccc12)c1cccc2nonc12	inconclusive [inhibitor, full curve]	–
CCOc1ccc2c(c1)-c1c(ssc1=S)C(C)(C)N2C	–	inactive: -7.48%
CC(C)N(Cc1ccccc1)CC(O)COc1ccc(S(=O)(=O)N2CCOCC2)cc1Cl (configuration not stated)	inconclusive [inhibitor, single point]	–
CCC1=Nc2ccccc2-c2nnc(SC)nc2O1	inconclusive [inhibitor, single point]	–
Cc1cc(N2C(=O)NC(=O)CC2C)c(C)cc1C(C)C (configuration not stated)	inconclusive [inhibitor, full curve, poor fit]	–
CCOc1ccc(N=c2cc(-c3ccc(OC)cc3)oc3ccccc23)cc1	inconclusive [inhibitor, partial curve]	–
Cc1ccc(NC(=O)CNC(=O)c2ccccc2F)cc1Cl	inconclusive [inhibitor, full curve, poor fit]	–
COC(=O)c1cccc(C(=O)Oc2cccc(Br)c2)n1	inconclusive [inhibitor, full curve]	–

Structure (SMILES)	Potency	activity change, negative = inhibition
COc1ccc(C(=O)CSc2nc3ccc([N+](=O)[O-])cc3[nH]2)cc1	inconclusive [inhibitor, full curve]	–
C=C(C)COc1ccc(-c2[nH]ncc2-c2ccccc2OC)c(O)c1	inconclusive [inhibitor, single point]	–
CCN(CC)S(=O)(=O)c1ccc(C(=O)OCC(=O)Nc2ccc(-c3nc4ccc(C)cc4s3)cc2)cc1	–	inconclusive: 15.8% [activator]
C/C(=N\NC(=O)Cc1c(C)[nH][nH]c1=O)c1ccc(Cl)c(Cl)c1	inconclusive [inhibitor, single point]	–
COc1cc([N+](=O)[O-])cc(/C=N/NC(=O)c2ccc(C)nc2)c1O	inconclusive [inhibitor, full curve]	–
CCOc1cccc(=O)c2c(C)n(C)c(C)c12	inconclusive [inhibitor, full curve, poor fit]	–
COc1ccc(N2CCN(C(CNC(=O)C(=O)NCCC3=CCCCC3)c3ccco3)CC2)cc1 (configuration not stated)	inconclusive [inhibitor, partial curve, poor fit]	–
O=C(CCCC(=O)NNC(=O)Nc1ccccc1)NNC(=O)Nc1ccccc1	inconclusive [inhibitor, full curve]	–
O=C(CSc1n[nH]c(=O)[nH]c1=O)N/N=C/c1ccccc1O	inconclusive [inhibitor, full curve, poor fit]	–
COC(=O)C1CSc2[nH]c(=O)sc2C1c1ccc(O)c(OC)c1 (configuration not stated)	–	inactive: -0.385%
CC(C)(C)NCc1cc(Br)ccc1OCc1cccs1	inconclusive [inhibitor, single point]	–
CCOc1ccc2nc(NC(=O)CS(=O)(=O)c3ccccc3)sc2c1	inconclusive [inhibitor, single point]	–
O=C1CC(C(=O)Nc2nccs2)C(c2ccccc2)O1 (configuration not stated)	inconclusive [inhibitor, full curve]	–
COC(=O)C(C)N(C(=O)c1cccc(Cl)c1)c1c(C)cccc1C (configuration not stated)	inconclusive [inhibitor, single point]	–
COC(=O)c1ccn(C(=O)c2ccc(Cl)cc2)n1	–	inconclusive: -16.8% [inhibitor]
CC(C(=O)Nc1ccccc1-c1ccccc1)N1CCN(S(=O)(=O)c2ccccc2)CC1 (configuration not stated)	inconclusive [inhibitor, single point]	–
Cc1occc1C(=O)Nc1cc(C(C)(C)C)on1	–	inactive: -5.44%
c1ccc(C2=NCCCN2)cc1	inconclusive [inhibitor, single point]	–
CCc1ccccc1NC(=O)c1ccc(NS(C)(=O)=O)cc1	–	inconclusive: 3.47% [activator]
CCNc1nc(NCC)nc(SCCOc2ccc(C)cc2)n1	inconclusive [inhibitor, full curve]	–
O=C(Nc1ccccc1)N(Cc1ccc2c(c1)OCO2)Cc1nc2ccccc2c(=O)[nH]1	inconclusive [inhibitor, partial curve]	–

From PubChem BioAssay AID1466 (National Center for Advancing Translational Sciences (NCATS), 2008)
